From PubChem BioAssay AID596 (National Center for Advancing Translational Sciences (NCATS), 2007)
Out of some 71,000 compounds screened, about 1,400 (2%) were called active. The shares of active, inactive and inconclusive entries below differ from those in the screen. The call rests on the fitted dose curve; in most records, active means well fitted curve in the direction sought with a large enough effect; inconclusive means small, poorly fitted or top-dose-only effect; inactive means no such curve, though single readings can be large or run the other way. Potencies beside an inconclusive call are fits to weak or partial responses and may not hold up.

What follows are compounds tested against Microtubule-associated protein tau (Homo sapiens) (UniProt P10636) (assay: qHTS Assay for Tau Filament Binding). Settings: recombinant tau filaments, thioflavin S fluorescence, 15 h, filaments grown with octadecylsulfate alongside compound; series mostly up to 57.1 µM; activity change, negative = inhibition: at the top concentration.
Summary of the method: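 Tau 2 uM in ThS buffer dispensed; compound added; 60 uM ODS added (finals 1 uM tau, 30 uM ODS); 15 h 37 C; fluor ex450/em510.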
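Further: actives lower thioflavin S fluorescence by blocking filaments or displacing dye.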
On the % scale 0 is the no-effect control and ±100 the full control effect; potency means the concentration at half of the fitted maximal effect.

Chain of UniProt P10636 (P10636 whole entry, looked up): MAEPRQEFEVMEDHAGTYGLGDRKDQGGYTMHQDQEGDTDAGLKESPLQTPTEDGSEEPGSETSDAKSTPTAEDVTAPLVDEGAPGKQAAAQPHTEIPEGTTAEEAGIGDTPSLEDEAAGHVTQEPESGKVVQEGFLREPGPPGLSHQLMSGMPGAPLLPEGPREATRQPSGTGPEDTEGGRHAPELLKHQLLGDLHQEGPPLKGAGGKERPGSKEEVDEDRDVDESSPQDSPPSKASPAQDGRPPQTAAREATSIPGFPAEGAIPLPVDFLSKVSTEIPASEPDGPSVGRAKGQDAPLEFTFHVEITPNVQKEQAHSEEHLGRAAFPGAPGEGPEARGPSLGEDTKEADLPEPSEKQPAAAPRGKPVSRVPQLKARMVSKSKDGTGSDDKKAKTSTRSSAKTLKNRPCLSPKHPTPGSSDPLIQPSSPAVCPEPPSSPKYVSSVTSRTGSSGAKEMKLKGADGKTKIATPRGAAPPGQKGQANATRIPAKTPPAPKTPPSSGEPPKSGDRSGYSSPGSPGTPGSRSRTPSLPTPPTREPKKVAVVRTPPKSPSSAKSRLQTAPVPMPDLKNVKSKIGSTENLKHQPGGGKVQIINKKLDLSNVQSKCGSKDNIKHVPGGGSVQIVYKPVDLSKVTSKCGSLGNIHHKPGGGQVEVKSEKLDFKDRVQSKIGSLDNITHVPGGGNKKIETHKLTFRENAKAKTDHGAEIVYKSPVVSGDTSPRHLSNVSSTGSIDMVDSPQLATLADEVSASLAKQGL

Potency, active:
COc1cc(C(=O)Nc2ccc(N(C)C)cc2)cc(OC)c1OC 10 µM, FC(F)C(F)(F)C(F)(F)C(F)(F)c1cc(-c2ccccc2)n[nH]1 10 µM, COc1cccc(Cn2c(=O)c(-c3cccc(Cl)c3)nc3cncnc32)c1 20 µM, CC1=CC(=C2C(=O)c3ccccc3C2=O)C=C(C)N1Cc1ccco1 31.6 µM, Cc1cc(=O)cc(C)n1-c1ccccc1N1CCOCC1 7.94 µM

Potency, inconclusive:
O=[N+]([O-])c1ccc([C@@H](Nc2ccccc2)c2ccc3cccnc3c2O)cc1 1 µM [decreasing], O=C(CSc1nnc(Cn2c(=O)sc3ccccc32)n1-c1ccccc1)NCc1ccco1 0.316 µM [decreasing], CCN(CC)CCN1C(=O)c2oc3ccccc3c(=O)c2C1c1ccc(C)cc1 (stereo unspecified) 25.1 µM [decreasing], CCN(CC)c1ccc(NC(=O)CN2C(=O)CC(C)(C)S(=O)(=O)c3ccccc32)c(C)c1 31.6 µM [decreasing], O=C1C(C=NCc2cccnc2)=C(O)c2ccccc21 3.16 µM [decreasing], Cc1nc(NC(=O)c2ccccc2)sc1-c1csc(NCc2ccco2)n1 31.6 µM [decreasing], COCCNc1nc(-c2ccccc2OC)nc2ccccc12 20 µM [decreasing], CCNCCCNCCCNCCCNCC 39.8 µM [decreasing], CN(C)c1ccc(C(=C2C=CC(=[N+](C)C)C=C2)c2ccccc2)cc1 3.16 µM [decreasing], COc1ccc(CCCO[C@@H](Cn2ccnc2)c2ccc(OC)cc2)cc1 39.8 µM [decreasing], C=CCOc1cccc(C2c3c(oc4ccc(F)cc4c3=O)C(=O)N2CCCN2CCOCC2)c1 (stereo unspecified) 39.8 µM [decreasing], O=C(Nc1cccnc1)c1cc2nc(C3CC3)cc(C(F)(F)F)n2n1 10 µM [decreasing], O=C(c1ccc(F)cc1)C1CCN(CCn2c(=S)[nH]c3ccccc3c2=O)CC1 39.8 µM [decreasing], CS(=O)(=O)N1CCc2cc(-c3csc(NCC4CCCO4)n3)ccc21 (stereo unspecified) 25.1 µM [decreasing], c1ccc2sc(N3CCN(Cc4ccc5c(c4)OCO5)CC3)nc2c1 39.8 µM [decreasing], N#CCCn1c(=O)c(-c2cc(F)cc(F)c2)nc2cnc(Oc3ccccc3)nc21 39.8 µM [decreasing], COc1ccc(N2CCN(c3ccc(N)cc3C#N)CC2)cc1 39.8 µM [decreasing], CC1Cc2cc(C3(O)C(=O)c4ccccc4C3=O)ccc2N1 (stereo unspecified) 39.8 µM [decreasing], CCCCCc1nnc(NC(=O)Cc2cccs2)s1 10 µM [decreasing], N#CCCn1c(SCC(=O)c2c[nH]c3ccccc23)nc2ccccc21 39.8 µM [decreasing], CCCCNc1nc2ccccc2n1CC(=O)N1CCc2ccccc2C1 31.6 µM [decreasing], COC(=O)c1cc(Cc2ccc(N)c(C(=O)OC)c2)ccc1N 31.6 µM [decreasing], N[C@H](C(=O)O)c1ccc(C(=O)O)c(O)c1 39.8 µM [decreasing], O=C(O)c1cc(=O)c2ccccc2[nH]1 39.8 µM [decreasing], O=C(NCCNC[C@@H](O)COc1ccc(O)cc1)N1CCOCC1 39.8 µM [decreasing], Cc1cccc(OCC(=O)Nc2ccc(N3CCCC3)cc2)c1C 6.31 µM [decreasing], O=C(CSc1ccc(Cl)cc1)c1ccco1 39.8 µM [decreasing], CCCCN1CCC[C@@H]1CNC(=O)c1cc(C#N)c2ccccc2c1OC 39.8 µM [decreasing], Cc1ccc(C(=O)CC2(O)C(=O)N(Cc3ccccc3Cl)c3ccccc32)o1 (stereo unspecified) 39.8 µM [decreasing], CCOC(=O)CN1CC23C=CC(O2)C(C(=O)Nc2ccc4c(c2)OCO4)C3C1=O (stereo unspecified) 7.94 µM [decreasing], C[C@@]12C(=O)OC(=O)[C@@]1(C)[C@H]1CC[C@@H]2O1 39.8 µM [decreasing], CC(C)C[C@H](NC(=O)[C@@H](NC(=O)N[C@@H](Cc1ccccc1)C(=O)O)[C@H]1CCN=C(N)N1)C(=O)N[C@H](C=O)Cc1ccccc1 39.8 µM [decreasing], CN1[C@@H]2CC(OC(=O)[C@H](CO)c3ccccc3)C[C@@H]1[C@H]1O[C@H]12 (stereo partly specified) 39.8 µM [decreasing]

Activity change, negative = inhibition, inactive:
COC(=O)c1ccc(-c2nc3ccc(C)cc3o2)cc1 5.4%, CC(CNC(=O)C1CCCCC1)NC(=O)C1CCCCC1 (stereo unspecified) -6.7%, COc1ccccc1N1C(=O)c2ccccc2NC1c1ccncc1 (stereo unspecified) -4%, O=C(Nc1nc(-c2ccc(Cl)s2)cs1)c1cccs1 -25.4%, Cc1ncc(CO)c(CN)c1O 0.7% [at 11.4 µM], Cc1ccc(-c2cc(C(=O)Nc3cccnc3)c3ccccc3n2)o1 -19.6%, Nc1c(-c2ccc(Cl)cc2)nnn1-c1ccccc1 -2.8%, O=C(O)c1[nH]c(=O)[nH]c(=O)c1CN1CCCCC1 0.3% [at 11.4 µM], COc1ncc2nc(-c3cccs3)c(=O)n(CCC#N)c2n1 40.7%, Cc1cc(NC(c2cccnc2)c2ccc3cccnc3c2O)no1 (stereo unspecified) -0.6%, COCCn1c(=O)c(-c2ccccc2)nc2cnc(N3CCNCC3)nc21 12.6%, CCn1c(SCC(=O)NCC2CCCO2)nc2cc(S(=O)(=O)N3CCCCC3)ccc21 (stereo unspecified) 0.9%, Cc1ccc2[nH]c(=O)c(CN(Cc3nnnn3Cc3ccccc3)C3CCCC3)cc2c1 26.3%
